For 106 compounds, cell count results are on record in PubChem BioAssay AID1625 (Sanford-Burnham Center for Chemical Genomics, 2009).

The list shows a part of the results. Further columns of the screen follow, without active or inactive calls. Most of these compounds were active or inconclusive in the main read-out, so they are no random draw.

A short description of this assay: up-regulation of insulin promoter-GFP reporter – imaging, high-content screening, mouse beta cells (AID 1625).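 Note: total cells summed across four imaged fields per well.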 As to conditions: MIN6 insulin promoter-GFP reporter, measured here: cytotoxicity, nuclei count, at 5 µM.
Take `CCN(CC)c1ccc(/C=N/Nc2nc(C)cc(=O)[nH]2)c(O)c1`: the cell count was found to be 360 cells.

For the compound `Cc1ccc(Cn2c(=N)n(CC(=O)c3ccc([N+](=O)[O-])cc3)c3ccccc32)cc1`, the cell count was determined as 478 cells. Regarding `CCN(CC)c1ccc2cc(C(N)=O)/c(=N\NC(=O)c3ccncc3)oc2c1`, the cell count was found to be 1600 cells.

In turn, `CCC(C)NC(=O)CC1Oc2ccc(C)cc2NC1=O` (stereo unspecified) came in with a cell count of 468 cells.

`O=C(N/N=C/c1c(O)ccc2ccccc12)c1cccc(C(F)(F)F)c1` showed a cell count of 368 cells. With `CN(C)C(=O)CN(c1ccc2c(c1)OCO2)S(C)(=O)=O`, the cell count was found to be 1100 cells. The figure for `CC[n+]1c(/C=C2/C=C(C)CC(C)(C)C2)sc2ccc(OC)cc21` is 271 cells. `CCOC(=O)c1cnc(SCC(=O)Nc2cc(OC)ccc2OC)nc1N` showed a cell count of 342 cells. Next, `OC(COCc1cccs1)CN1CCN(c2cccc(Cl)c2)CC1` (stereo unspecified): 440 cells. The compound `COc1ccc(C2=NOC(C(=O)Nc3cc(C)nn3-c3ccccc3)C2)cc1OC` (stereo unspecified) had a cell count of 316 cells. The figure for `Cc1cc(C)cc(-n2c(=O)c3sccc3n(CC(=O)NCc3ccco3)c2=O)c1` is 1100 cells; for `CCn1nnc2sc3c(c2c1=O)CCC(C)C3` (stereo unspecified) it is 1400 cells. For `O=C(NC1C=CS(=O)(=O)C1)c1sc2ccccc2c1Cl` (stereo unspecified), the cell count stood at 981 cells.

`Cc1cccc2cc3c(N)c(C(=O)N4CCc5ccccc54)sc3nc12`: the cell count came to 1230 cells.

With `C=CCc1c(C)nc(C)nc1N/N=C/c1ccc(N(C)C)cc1`, the cell count turned out to be 389 cells. Next, `COc1cc(-c2nc(-c3ccc4c(c3)-c3ccccc3S4(=O)=O)c(-c3ccccc3)[nH]2)cc(OC)c1OC`: 458 cells; `CC1(C)Cc2c(ccc3ccccc23)C(c2cc3ccccc3oc2=O)=N1`: 1290 cells. `c1cc2c(cc1C1CCCCC1)c1c3n2CCCNC3CCC1` (stereo unspecified): the cell count stood at 287 cells. Compound `Cc1ccc(S(=O)(=O)N2CCCOC2CNC(=O)C(=O)NCc2ccco2)cc1` (stereo unspecified) yielded a cell count of 495 cells.

Turning to `O=C(COC(=O)c1ccco1)NCC1CCCO1` (stereo unspecified), the cell count came to 1000 cells. Next, `O=S(=O)(c1ccccc1)N1CCn2c(nc3ccccc32)C1`: 199 cells; `O=[N+]([O-])c1ccc(N2N=C(c3ccco3)CC2c2ccccc2)cc1` (stereo unspecified): 1240 cells; `Cc1ccc(-c2cn3nc(-c4ccccc4)c(-c4ccccc4)nc3n2)cc1`: 1040 cells. Compound `CC(C)NC(=O)/C(C#N)=C\c1ccc(N(C)C)o1` gave a cell count of 1640 cells. Take `O=c1oc2cc(O)ccc2cc1-c1nc2c(s1)CCc1ccccc1-2`: the cell count is 1620 cells. Compound `Cc1ccc(CNc2ccc3c(c2)OCO3)cc1` returned a cell count of 977 cells. The figure for `C=CCN1C=CC(=CC=C(C#N)C#N)C=C1` is 912 cells; for `Oc1c(CN2CCN(c3ccc(F)cc3)CC2)cc(Cl)c2cccnc12` it is 399 cells. `CCOC(=O)c1c(C(C#N)C#N)cc(C)nc1C` yielded a cell count of 468 cells. With `Cc1cccc(Oc2cc(NC(=O)c3ccccc3)cc([N+](=O)[O-])c2)c1`, the cell count was determined as 395 cells. The figure for `CCOC(=O)c1c(C)oc2c(F)c(F)c(F)c(F)c2c1=O` is 457 cells; for `CC(C)(C)C(=O)c1sc2nc(-c3cccs3)cc(C(F)(F)F)c2c1N` it is 1460 cells. With `CCCCCn1nc(-c2ccccc2)c2nc3ccccc3nc21`, the cell count is 1650 cells. For `O=C1C=C(NCCN2CCOCC2)C(=O)c2cnccc21`, the cell count turned out to be 336 cells. Take `C/C(=N\NC(=O)NC1CCCCC1)C1CCCCC1`: the cell count is 437 cells.

For the compound `CC1CC(=O)C2=C(C1)OC(N)=C(C#N)C2c1coc2ccccc2c1=O` (stereo unspecified), the cell count was found to be 1240 cells. In the case of `N=c1n(Cc2ccccc2)c2ccccc2n1CC(O)COc1ccc(Cl)cc1Cl` (stereo unspecified), the cell count is 385 cells. Regarding `c1ccc(CCNc2ncnc3ccccc23)cc1`, the cell count amounted to 491 cells. Compound `COC(=O)C1=C(C)N=c2s/c(=C3\C(=O)Nc4ccccc43)c(=O)n2C1c1ccccc1` (stereo unspecified) registered a cell count of 282 cells. `COc1cc(/C=C2\CC/C(=C\c3cc(OC)c(O)c(OC)c3)C2=O)cc(OC)c1O` returned a cell count of 362 cells. In turn, `O=C(Nc1ccn(Cc2ccc(F)cc2)n1)c1ccncc1` had a cell count of 286 cells. Compound `Nc1c(C(=O)N/N=C/c2cccnc2)oc2nc(-c3ccco3)cc(-c3ccco3)c12` had a cell count of 905 cells. As for `CCN(C(=O)c1ccc(C(C)(C)C)cc1)c1nnc(Cn2nnc3ccccc32)s1`, the cell count was 316 cells.

Take `COc1ccc(OC)c(C2C3CN(C(C)C)CC=C3C(C#N)=C(N)C2(C#N)C#N)c1` (stereo unspecified): the cell count is 1390 cells. Compound `OC1(c2cn(Cc3ccccc3)nn2)CCCCC1` had a cell count of 1170 cells.

`O=S(=O)(Nc1cc(Sc2ncn[nH]2)c(O)c2ccccc12)c1ccccc1` had a cell count of 300 cells.

Compound `COC(=O)c1ccc2c(c1)C(C)(C)C(/C=C/c1ccc(O)cc1)=[N+]2C` showed a cell count of 466 cells. Next, `CCOC(=O)c1ccc(NC(=O)COc2ccc(S(=O)(=O)NC(C)CC)cc2)cc1` (stereo unspecified): 1420 cells; `CCCCCc1cc(=O)oc2c(C(CCN3CCCC(C)C3)c3cc(OC)c(OC)c(OC)c3)c(OC)cc(OC)c12` (stereo unspecified): 190 cells.

As to `COc1ccc(C2C(C(C)=O)=C(C)N=c3s/c(=C\c4cc(C)n(C)c4C)c(=O)n32)c(OC)c1` (stereo unspecified), the cell count amounted to 1250 cells. In turn, `CCCN1C(=O)c2cccc3c(N4CCCCC4)ccc(c23)C1=O` yielded a cell count of 1520 cells.

The compound `CC(C)Cn1c(N)c(C(=O)COC(=O)CC23CC4CC(CC(C4)C2)C3)c(=O)n(C)c1=O` returned a cell count of 218 cells. In turn, `Cc1ccccc1C(=O)N1CCc2ccccc2C1` showed a cell count of 1180 cells.

On to `S=c1sc2c(Cl)ncnc2n1-c1ccccc1`, for which the cell count is 339 cells.

Regarding `CC1CCC/C=C/C(=O)c2c(O)cc(O)cc2CC(=O)O1` (stereo unspecified), the cell count stood at 353 cells. `COc1cc(S(=O)(=O)N2CCOCC2)ccc1NC(=O)COC(=O)C12CC3CC(CC(C3)C1)C2` gave a cell count of 1400 cells. Consider `CN(CCCC(=O)Nc1ccncc1)S(=O)(=O)c1ccc(Cl)cc1`, for which the cell count amounted to 419 cells.

The compound `COC(=O)c1sc2nc(CSc3nc4ccc(C)cc4[nH]3)[nH]c(=O)c2c1C` yielded a cell count of 437 cells. Next, `CC(Cc1cccs1)NC(=O)Nc1cccc(Cl)c1` (stereo unspecified): 482 cells. With `CCN1C(=O)C(C(=O)NC(C)c2ccccc2)C2CC1(C)Oc1ccccc12` (stereo unspecified), the cell count was 296 cells. In turn, `N#C/C(=C/c1ccc(N2CCCCC2)o1)C(=O)Nc1ccc2ccccc2c1` had a cell count of 947 cells.

Take `O=C(CCl)N(c1ccc(Cl)cc1)c1c[nH]c2ccccc12`: the cell count stood at 469 cells. Compound `Oc1ccccc1-c1nnc(SCCN2CCOCC2)n1Cc1ccccc1` gave a cell count of 480 cells. Turning to `COc1ccc2c(c1)NC(c1ccc(N(C)C)cc1)c1cccn1-2` (stereo unspecified), the cell count was determined as 1350 cells. Take `O=C(COC(=O)C1CC(O)CN1C(=O)Oc1ccccc1)c1ccc(Br)cc1` (stereo unspecified): the cell count turned out to be 405 cells. Next, `Cn1nc(-c2ccccn2)nc2c(=O)n(C)c(=O)nc1-2`: 445 cells; `S=C1Cc2ccccc2N1`: 167 cells; `CC(C)NC(=O)NC(=O)COC(=O)c1cccc(S(=O)(=O)N2CCCCC2)c1`: 1220 cells. Compound `CCOc1ccc(-n2c(-c3ccccc3)c[n+]3c2CCC3)cc1` had a cell count of 420 cells. With `COc1ccc(-n2nc(C#N)c(Cl)cc2=O)cc1`, the cell count is 447 cells. `N=c1oc2c3c4c(cc2cc1C(=O)Nc1ccccc1)CCCN4CCC3` returned a cell count of 968 cells. The compound `COc1ccc(CCNc2cc(N3CCN(C(=O)c4ccccc4F)CC3)ccc2[N+](=O)[O-])cc1OC` showed a cell count of 213 cells. The compound `CCCCN(C)C1=CC2=CC(=C(C#N)C#N)CCC2CC1` (stereo unspecified) returned a cell count of 1160 cells. Next, `Cc1ccc(NC(=O)c2ccc(Nc3c([N+](=O)[O-])cc([N+](=O)[O-])cc3[N+](=O)[O-])cc2)cc1`: 475 cells; `O=C(CN1C(=O)C2CC=CCC2C1=O)Nc1nnc(SCc2c(Cl)cccc2Cl)s1` (stereo unspecified): 454 cells. Next, `Oc1c(C(c2cccs2)N2CCN(c3ccccc3)CC2)ccc2cccnc12` (stereo unspecified): 331 cells; `CC(=O)Oc1ccc2c(c1)Oc1cc(OC(C)=O)ccc1C21OC(=O)c2ccccc21`: 1390 cells; `O=[N+]([O-])c1ccc(C2=NN(c3ccccc3)C(c3ccco3)C2)cc1` (stereo unspecified): 902 cells. As to `N#C/C(C(=O)c1ccccc1)=C1/SC=C(N)N1c1ccccc1`, the cell count stood at 1160 cells. `Nc1c(C(=O)Nc2nccs2)sc2nc(-c3cccs3)cc(C(F)(F)F)c12` came in with a cell count of 980 cells. The figure for `CCc1c(C)sc2nc(C(C)C)nc(SCC(=O)N3CCc4ccccc4C3)c12` is 358 cells. `O=C(Nc1cccc(Cl)c1)N1CCSc2cc(Cl)ccc21` gave a cell count of 454 cells. Turning to `Cc1c(C(=O)N2CCCCC2)oc2ccc(S(=O)(=O)N3CC(C)CC(C)C3)cc12` (stereo unspecified), the cell count is 287 cells. In the case of `O=C(Nc1cccnc1)C1(F)C(F)(F)C(F)(F)C(F)(F)C(F)(F)C1(F)F`, the cell count stood at 335 cells. Compound `COc1ccc(-n2cc(-c3ccc(OC(F)F)cc3)[n+]3c2CCCCC3)cc1` showed a cell count of 419 cells. The compound `Cc1ccc(Cl)cc1N1CCN(C(=O)CN(C2CCCCC2)S(C)(=O)=O)CC1` returned a cell count of 485 cells. With `CN(C)S(=O)(=O)c1ccc(-c2csc(N/N=C/c3ccc(O)cc3)n2)cc1`, the cell count is 480 cells.

For the compound `CN(C)c1ccc(-c2nnn(CC(=O)N3c4ccccc4CCc4ccccc43)n2)cc1`, the cell count worked out at 491 cells. With `C1=C(c2ccccc2)Nc2nnnn2C1`, the cell count is 683 cells. `O=S(=O)(/C(=C/c1ccc(C(F)(F)F)cc1)c1nc2ccccc2[nH]1)c1ccccc1` registered a cell count of 495 cells. For the compound `Cn1c(=O)c(N)c2c3c(c(Br)ccc31)C(=O)c1ccccc1-2`, the cell count was 1320 cells.

Compound `CCN(CC)c1ccc(C=C(c2nnnn2-c2ccccc2)c2nnnn2-c2ccccc2)cc1` came in with a cell count of 1400 cells. The figure for `CCN1C(=O)CSc2ccc(C(=O)NCc3ccccc3OC)cc21` is 1470 cells; for `O=C(N/N=C/c1cnc2ccccc2n1)c1cccc(F)c1` it is 416 cells.

`CCOC(=O)CN1C(=O)S/C(=C/c2ccc(N3CCCCC3)o2)C1=O` came in with a cell count of 1480 cells. Consider `O=C(NCC1CCCO1)C1CCN(S(=O)(=O)N2CCCC2)CC1` (stereo unspecified), for which the cell count is 1580 cells. `COC(=O)[C@@H](NC(=O)Nc1cccc(OC)c1)C(C)C` came in with a cell count of 1460 cells. In the case of `O=C(COC(=O)c1cc(S(=O)(=O)N2CCOCC2)ccc1O)NCC1CCCO1` (stereo unspecified), the cell count was 1220 cells. Turning to `O=Cc1sc(Nc2ccccc2)nc1Cl`, the cell count amounted to 1280 cells. On to `COc1ccc(C(=O)c2sc3nc(-c4ccccc4)ccc3c2N)cc1OC`, for which the cell count came out at 1300 cells.

`FC(F)(F)c1cccc(-c2nc3nc(Cl)c(Cl)nc3[nH]2)c1` returned a cell count of 490 cells. In the case of `COCCNC(=O)c1cc2c(=O)n3cccc(C)c3nc2n1C`, the cell count amounted to 478 cells. Regarding `COC(=O)c1[nH]c(C)c(/C(O)=C2\C(=O)C(=O)N(CCN(C)C)C2c2ccccc2OC)c1C` (stereo unspecified), the cell count was 306 cells. As for `O=C(N/N=C/c1c(O)ccc2ccccc12)c1[nH]ncc1Br`, the cell count turned out to be 471 cells.

For the compound `O=C(N/N=C/c1sc(N2CCOCC2)nc1-c1ccccc1)c1cccc(S(=O)(=O)N2CCOCC2)c1`, the cell count stood at 495 cells. `Cc1noc(C)c1COC(=O)c1cccc(S(=O)(=O)N2CCCCCC2)c1` yielded a cell count of 470 cells.
